Test [1] addresses T1, starch-binding domain containing protein 1 (STBD1) (human (endogenous in MCF-7, MCF-7/DDP, A549/5-Fu, HEK293T)) (UniProt O95210).
T1 sequence: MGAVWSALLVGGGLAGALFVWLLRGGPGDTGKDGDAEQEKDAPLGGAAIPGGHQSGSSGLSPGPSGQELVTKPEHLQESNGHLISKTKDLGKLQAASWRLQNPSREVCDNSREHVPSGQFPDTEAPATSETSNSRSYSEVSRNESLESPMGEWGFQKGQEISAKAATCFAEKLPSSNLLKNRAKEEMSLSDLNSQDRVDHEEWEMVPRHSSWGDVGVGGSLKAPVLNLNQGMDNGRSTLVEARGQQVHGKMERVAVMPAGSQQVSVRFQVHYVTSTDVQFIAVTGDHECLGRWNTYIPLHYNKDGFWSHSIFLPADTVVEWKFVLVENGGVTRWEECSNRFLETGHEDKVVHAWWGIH
Nature of the test: co-IP; endogenous proteins in lysates of tumor cells (MCF-7, MCF-7/DDP, A549/5-Fu), untreated or treated with DDP or 5-Fu for 24 hours, some with si-Ctrl or si-AHR; indicated antibodies (anti-STBD1, anti-HSP90, anti-AHR, anti-p-PYGL, anti-PTG) overnight at 4 C, Protein A/G beads; Western blot.

Amino acid sequences for entries named in this document (tags omitted). A change or cut given only in a name is not applied to a line headed by its entry. Chains listed by the source or under a name are the forms on record and can include a tag or linker. Residues count along the entry.
Myc-AHR (P35869, residues 11-848): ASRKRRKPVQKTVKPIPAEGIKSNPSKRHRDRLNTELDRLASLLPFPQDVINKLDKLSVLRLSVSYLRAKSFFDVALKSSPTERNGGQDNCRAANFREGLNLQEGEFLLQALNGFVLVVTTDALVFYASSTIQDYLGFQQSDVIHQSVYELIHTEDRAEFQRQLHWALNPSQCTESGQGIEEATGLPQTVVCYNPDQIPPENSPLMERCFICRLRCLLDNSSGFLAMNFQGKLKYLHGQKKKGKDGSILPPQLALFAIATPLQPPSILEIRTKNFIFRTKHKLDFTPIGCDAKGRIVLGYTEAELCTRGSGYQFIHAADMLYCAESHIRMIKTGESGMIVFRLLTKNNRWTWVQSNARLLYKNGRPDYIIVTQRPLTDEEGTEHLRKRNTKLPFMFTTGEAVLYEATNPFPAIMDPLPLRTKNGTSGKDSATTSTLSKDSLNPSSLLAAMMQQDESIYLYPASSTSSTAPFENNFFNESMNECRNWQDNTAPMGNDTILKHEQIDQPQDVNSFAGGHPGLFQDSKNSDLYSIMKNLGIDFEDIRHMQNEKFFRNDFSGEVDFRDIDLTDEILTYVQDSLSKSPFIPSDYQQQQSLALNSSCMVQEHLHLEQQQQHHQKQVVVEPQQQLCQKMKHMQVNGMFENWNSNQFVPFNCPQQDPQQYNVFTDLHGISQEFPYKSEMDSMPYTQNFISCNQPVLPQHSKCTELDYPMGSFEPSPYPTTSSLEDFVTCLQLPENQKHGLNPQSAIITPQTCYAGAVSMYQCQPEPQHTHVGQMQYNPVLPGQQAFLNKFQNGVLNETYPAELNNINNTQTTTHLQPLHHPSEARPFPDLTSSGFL
Myc-AHR(C300A) (P35869, form named): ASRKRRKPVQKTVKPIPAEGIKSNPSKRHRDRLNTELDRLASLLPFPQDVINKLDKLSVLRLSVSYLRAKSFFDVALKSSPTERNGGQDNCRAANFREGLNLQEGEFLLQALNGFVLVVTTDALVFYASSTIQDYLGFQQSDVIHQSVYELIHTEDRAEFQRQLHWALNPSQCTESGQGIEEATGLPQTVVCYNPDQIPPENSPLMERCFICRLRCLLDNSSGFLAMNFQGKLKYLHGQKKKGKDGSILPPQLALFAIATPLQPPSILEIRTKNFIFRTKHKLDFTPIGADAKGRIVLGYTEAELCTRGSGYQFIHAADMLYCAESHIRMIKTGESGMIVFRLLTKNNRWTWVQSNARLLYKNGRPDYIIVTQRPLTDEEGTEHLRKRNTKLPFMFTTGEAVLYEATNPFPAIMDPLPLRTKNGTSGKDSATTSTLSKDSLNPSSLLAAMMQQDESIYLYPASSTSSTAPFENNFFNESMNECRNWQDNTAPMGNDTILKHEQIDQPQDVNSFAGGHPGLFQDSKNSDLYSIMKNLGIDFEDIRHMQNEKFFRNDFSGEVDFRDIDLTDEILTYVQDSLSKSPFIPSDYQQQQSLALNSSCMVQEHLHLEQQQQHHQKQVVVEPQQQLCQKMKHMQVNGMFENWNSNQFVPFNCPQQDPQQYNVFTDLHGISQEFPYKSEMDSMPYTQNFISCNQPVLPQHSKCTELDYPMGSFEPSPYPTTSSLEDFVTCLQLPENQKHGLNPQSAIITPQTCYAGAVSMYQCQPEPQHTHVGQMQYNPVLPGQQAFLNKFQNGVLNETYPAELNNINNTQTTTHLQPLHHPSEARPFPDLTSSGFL

In a further test the target is T2, HA-PTG (UniProt Q9UQK1).
T2 sequence: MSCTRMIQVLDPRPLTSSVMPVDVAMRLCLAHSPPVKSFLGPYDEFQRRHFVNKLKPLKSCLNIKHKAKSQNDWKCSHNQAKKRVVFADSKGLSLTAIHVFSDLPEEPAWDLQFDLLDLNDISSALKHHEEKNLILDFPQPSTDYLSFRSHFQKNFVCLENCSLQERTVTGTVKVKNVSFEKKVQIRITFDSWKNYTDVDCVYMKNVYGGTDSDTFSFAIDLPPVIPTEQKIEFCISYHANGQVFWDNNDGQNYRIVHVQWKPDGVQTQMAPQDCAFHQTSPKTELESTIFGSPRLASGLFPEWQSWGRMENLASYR
Briefly: co-IP; HEK293T cells transfected with tagged plasmids, treated with H2O2 (200 uM where printed) for 30 minutes or DDP (20 uM) for 12 hours; anti-Flag M2, anti-Myc or anti-HA beads, or anti-STBD1; Western blot.

Test [2] deals with T1, starch-binding domain containing protein 1 (STBD1) (human (endogenous in MCF-7, MCF-7/DDP, A549/5-Fu, HEK293T)). The test is described as above.
Test [3] shares this target. Nature of the test: co-IP; endogenous proteins in lysates of tumor cells (MCF-7, MCF-7/DDP, A549/5-Fu), untreated or treated with DDP or 5-Fu for 24 hours, some with si-Ctrl or si-AHR; indicated antibodies (anti-STBD1, anti-HSP90, anti-AHR, anti-p-PYGL, anti-PTG) overnight at 4 C, Protein A/G beads; Western blot. The source holds these as a separate data set.
Test [4] deals with aryl hydrocarbon receptor (AHR) (human (endogenous in MCF-7/DDP, A549/5-Fu)) (UniProt P35869). The description is as above.
For the next test, the target named is Myc-AHR (human) (UniProt P35869). Nature of the test: co-IP; HEK293T cells transfected with tagged plasmids, treated with H2O2 (200 uM where printed) for 30 minutes or DDP (20 uM) for 12 hours; anti-Flag M2, anti-Myc or anti-HA beads, or anti-STBD1; Western blot.
For test [5], the target named is Flag-tagged human AHR (Flag-AHR) (human) (UniProt P35869). Described as above.

This passage reports binding results from PMC10721154.

These are yes or no findings as the source states them, for the method shown. In cells and extracts the contact can be indirect. Some binding calls cover weakened binding; strength is not graded here. For some assays here: Tags and fused reporters may be left off the sequences shown.

In the case of “aryl hydrocarbon receptor (AHR) (from UniProt P35869 11-848)”, in test [1], the binding entry was “binds”.

Turning to “Flag-tagged human AHR (Flag-AHR) (from UniProt P35869 11-848)”, the binding result with HA-PTG is “binds”. With “Myc-AHR(C300A) (from UniProt P35869 11-848)”, the binding entry in test [2] is on record as “no binding”. The same measure, in the same setting: as for Myc-AHR (from UniProt P35869 11-848), the entry is “binds”.

B1: AHR-interacting protein (AIP) (protein, UniProt O00170 1-330)
chain: MADIIARLREDGIQKRVIQEGRGELPDFQDGTKATFHYRTLHSDDEGTVLDDSRARGKPMELIIGKKFKLPVWETIVCTMREGEIAQFLCDIKHVVLYPLVAKSLRNIAVGKDPLEGQRHCCGVAQMREHSSLGHADLDALQQNPQPLIFHMEMLKVESPGTYQQDPWAMTDEEKAKAVPLIHQEGNRLYREGHVKEAAAKYYDAIACLKNLQMKEQPGSPEWIQLDQQITPLLLNYCQCKLVVEEYYEVLDHCSSILNKYDDNVKAYFKRGKAHAAVWNAQEAQADFAKVLELDPALAPVVSRELRALEARIRQKDEEDKARFRGIFSH
As for B1, the binding result in test [3] is listed as “no binding”; in test [4], “binds”.

B2: HA-PTG(139-317) (domain or fragment, UniProt Q9UQK1 139-317)
chain: PQPSTDYLSFRSHFQKNFVCLENCSLQERTVTGTVKVKNVSFEKKVQIRITFDSWKNYTDVDCVYMKNVYGGTDSDTFSFAIDLPPVIPTEQKIEFCISYHANGQVFWDNNDGQNYRIVHVQWKPDGVQTQMAPQDCAFHQTSPKTELESTIFGSPRLASGLFPEWQSWGRMENLASYR
Consider B2, for which, in the test with Myc-AHR (human), the binding result was “no binding”.

B3: PPP1R3 family member PPP1R3C (PTG) (protein, UniProt Q9UQK1 1-317)
chain: MSCTRMIQVLDPRPLTSSVMPVDVAMRLCLAHSPPVKSFLGPYDEFQRRHFVNKLKPLKSCLNIKHKAKSQNDWKCSHNQAKKRVVFADSKGLSLTAIHVFSDLPEEPAWDLQFDLLDLNDISSALKHHEEKNLILDFPQPSTDYLSFRSHFQKNFVCLENCSLQERTVTGTVKVKNVSFEKKVQIRITFDSWKNYTDVDCVYMKNVYGGTDSDTFSFAIDLPPVIPTEQKIEFCISYHANGQVFWDNNDGQNYRIVHVQWKPDGVQTQMAPQDCAFHQTSPKTELESTIFGSPRLASGLFPEWQSWGRMENLASYR
Turning to B3, the binding entry in test [4] is listed as “binds”.

B4: HA-PTG(V85A/F87A) (protein, UniProt Q9UQK1 1-317)
chain: MSCTRMIQVLDPRPLTSSVMPVDVAMRLCLAHSPPVKSFLGPYDEFQRRHFVNKLKPLKSCLNIKHKAKSQNDWKCSHNQAKKRAVAADSKGLSLTAIHVFSDLPEEPAWDLQFDLLDLNDISSALKHHEEKNLILDFPQPSTDYLSFRSHFQKNFVCLENCSLQERTVTGTVKVKNVSFEKKVQIRITFDSWKNYTDVDCVYMKNVYGGTDSDTFSFAIDLPPVIPTEQKIEFCISYHANGQVFWDNNDGQNYRIVHVQWKPDGVQTQMAPQDCAFHQTSPKTELESTIFGSPRLASGLFPEWQSWGRMENLASYR
On to B4, for which the binding result in test [5] is given as “no binding”.

B5: HA-PTG (protein, UniProt Q9UQK1 1-317)
chain: MSCTRMIQVLDPRPLTSSVMPVDVAMRLCLAHSPPVKSFLGPYDEFQRRHFVNKLKPLKSCLNIKHKAKSQNDWKCSHNQAKKRVVFADSKGLSLTAIHVFSDLPEEPAWDLQFDLLDLNDISSALKHHEEKNLILDFPQPSTDYLSFRSHFQKNFVCLENCSLQERTVTGTVKVKNVSFEKKVQIRITFDSWKNYTDVDCVYMKNVYGGTDSDTFSFAIDLPPVIPTEQKIEFCISYHANGQVFWDNNDGQNYRIVHVQWKPDGVQTQMAPQDCAFHQTSPKTELESTIFGSPRLASGLFPEWQSWGRMENLASYR
Turning to B5, the binding result in test [5] was “binds”.

B6: HA-PTG(1-138) (domain or fragment, UniProt Q9UQK1 1-138)
chain: MSCTRMIQVLDPRPLTSSVMPVDVAMRLCLAHSPPVKSFLGPYDEFQRRHFVNKLKPLKSCLNIKHKAKSQNDWKCSHNQAKKRVVFADSKGLSLTAIHVFSDLPEEPAWDLQFDLLDLNDISSALKHHEEKNLILDF
With B6, the binding result with Myc-AHR (human) is “binds”.
